Hit rate of the full screen: of about 39,000 compounds, about 220 (0.56%) showed activity. Some of the results follow.
Each molecule was assayed on Escherichia coli K-12 BW25113 (assay: relative growth (OD600 normalised to plate interquartile mean) (fraction); higher = less growth inhibition, active = 0.2 or less). Conditions: 50 µM; LB; incubation time: overnight (16-24 h).
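Note: static incubation at 37 °C against the wild-type strain, values averaged over two biological replicates.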

SMILES | relative growth
CC(C)CC#Cc1ccc2c(c1)O[C@H](CN(C)C(=O)NC1CCCC1)[C@@H](C)CN([C@H](C)CO)S2(=O)=O | inactive: 1.04
C[C@@H]1CN([C@@H](C)CO)C(=O)CCCn2cc(nn2)CO[C@@H]1CN(C)S(=O)(=O)c1ccccc1C#N | inactive: 0.992
Cc1cn2nc([C@@H]3CCCCN3C(=O)c3cc(Cl)ccc3NS(C)(=O)=O)cc2nc1N1CC[C@H](N)C1 | inactive: 0.981
C[C@@H]1CN(S(=O)(=O)N2CCN(C(=O)c3[nH]nc4ccccc34)CC2)C[C@H](C)O1 | inactive: 1.02
C[C@@H]1CN([C@@H](C)CO)C(=O)c2cc(N(C)C)ccc2O[C@@H](C)CCCCO[C@H]1CN(C)Cc1ccc(C(F)(F)F)cc1 | inactive: 0.991
C[C@@H]1CN([C@H](C)CO)C(=O)c2cc(NC(=O)Nc3ccc(F)cc3)ccc2O[C@@H]1CN(C)Cc1ccc(Cl)c(Cl)c1 | inactive: 0.994
C[C@@H]1CCCCO[C@H](CN(C)C(=O)c2ccccc2)[C@H](C)CN([C@@H](C)CO)C(=O)c2cc(NS(=O)(=O)c3ccccc3)ccc2O1 | inactive: 1.01
Cn1cnc(S(=O)(=O)N[C@H]2CC[C@H](CC(=O)N3CCN(c4ccccc4)CC3)O[C@@H]2CO)c1 | inactive: 0.999
Cc1noc(C)c1S(=O)(=O)Nc1cccc2c1O[C@H](CN(C)CC1CC1)[C@H](C)CN([C@@H](C)CO)C2=O | inactive: 0.982
C[C@@H]1CCCCO[C@@H](CN(C)S(C)(=O)=O)[C@H](C)CN([C@@H](C)CO)C(=O)c2cc(NC(=O)Nc3cccc4ccccc34)ccc2O1 | inactive: 0.956
Cc1c(N(C)CS(=O)(=O)[O-])c(=O)n(-c2ccccc2)n1C.[Na+] | inactive: 1.01
C[C@H](CO)N1C[C@H](C)[C@H](CN(C)CC2CC2)Oc2cc(C#Cc3ccc(F)cc3)ccc2S1(=O)=O | inactive: 1.02
C[C@H]1CN([C@@H](C)CO)S(=O)(=O)c2ccc(C#CC3CC3)cc2O[C@@H]1CN(C)C(=O)C1CCCCC1 | inactive: 0.996
C[C@H]1CCCCO[C@H](CN(C)C(=O)Nc2ccc3c(c2)OCO3)[C@@H](C)CN([C@@H](C)CO)C(=O)c2cc(NC(=O)Cc3ccccc3)ccc2O1 | inactive: 0.999
COc1ccc(S(=O)(=O)Nc2ccc3c(c2)C(=O)N([C@H](C)CO)C[C@H](C)[C@H](CN(C)C(=O)Nc2ccccc2)OCCCC[C@H](C)O3)cc1 | inactive: 1
C[C@@H]1CCCCO[C@H](CN(C)C(=O)NC2CCCCC2)[C@@H](C)CN([C@@H](C)CO)C(=O)c2cc(NC(=O)Nc3ccc(C(F)(F)F)cc3)ccc2O1 | inactive: 0.991
Cc1ccc(S(=O)(=O)Nc2ccc3c(c2)C(=O)N([C@H](C)CO)C[C@H](C)[C@@H](CN(C)C(=O)Nc2cccc4ccccc24)OCCCC[C@H](C)O3)cc1 | inactive: 1.03
Cc1ccc(S(=O)(=O)Nc2cccc3c2O[C@H](CN(C)Cc2ccc(-c4ccccc4)cc2)[C@H](C)CN([C@H](C)CO)C3=O)cc1 | inactive: 1.01
N[C@H]1CC[C@@H](NC(=O)[C@H]2CCc3ccccc32)CC1 | inactive: 0.971
COCCOC(=O)N1C(=O)[C@@]2(c3cc(C#CC4=CCCCC4)ccc31)[C@H](c1ccccc1OCCO)N1[C@H](c3ccccc3)[C@H](c3ccccc3)OC(=O)[C@H]1[C@@H]2C(=O)N1CCCCCCC1 | inactive: 1.04

SMILES | relative growth
COc1ccc(NC(=O)O[C@H]2[C@H](OC(=O)Nc3ccccc3-c3ccccc3)[C@H](OC(=O)Nc3ccccc3-c3ccccc3)[C@@H](OC)O[C@@H]2CO)cc1 | inactive: 1.06
COc1ccc(NC(=O)Nc2ccc3c(c2)C(=O)N([C@H](C)CO)C[C@H](C)[C@H](CN(C)CC2CC2)OCCCC[C@H](C)O3)cc1 | inactive: 0.961
CCCCC[C@@H](O)[C@H]1C(=O)O[C@H](C)[C@@H](O)/C=C/C=C/C=C/C=C/C=C(\C)[C@@H](O)C[C@H](O)C[C@H](O)C[C@H](O)C[C@H](O)C[C@H](O)C[C@@H]1O | inactive: 0.991
NCc1c(Cl)cccc1Cl | inactive: 0.997
CO[C@H]1CN(C)C(=O)c2cc(NS(C)(=O)=O)ccc2OC[C@@H](C)N(C(=O)C2CCCCC2)C[C@H]1C | inactive: 0.998
O=C(C[C@H]1CC[C@H](NC(=O)CN2CCOCC2)[C@H](CO)O1)NCCc1ccccc1 | inactive: 0.965
C[C@@H]1CN([C@@H](C)CO)C(=O)c2cccc(NS(=O)(=O)c3cn(C)cn3)c2O[C@H]1CN(C)S(=O)(=O)c1cccs1 | inactive: 0.986
C[C@@H]1NC(=O)NC1=O | inactive: 0.984
C[C@@H]1CN([C@H](C)CO)C(=O)c2cccc(NC(=O)c3cnccn3)c2O[C@H]1CN(C)C(=O)Nc1ccc2c(c1)OCO2 | inactive: 1.01
Cc1noc(C)c1S(=O)(=O)Nc1cccc2c1O[C@@H](CN(C)C(=O)NC(C)C)[C@@H](C)CN([C@@H](C)CO)C2=O | inactive: 1.02
C[C@@H]1CN([C@H](C)CO)C(=O)c2cc(NC(=O)Cn3cnnn3)ccc2O[C@@H]1CN(C)Cc1ccc(C(F)(F)F)cc1 | inactive: 0.996
CO[C@H]1C[C@@H](O[C@@H](O)[C@@H](O)[C@@H](O)[C@@H](O)[C@@H](O)CO)c2c(cc3cc(C)oc(=O)c3c2O)OC1=O | inactive: 0.997
O=C(CCCCCCC(=O)Nc1ccc([C@H]2O[C@@H](CSc3ccccn3)C[C@H](c3ccccc3)O2)cc1)NO | inactive: 0.963
C[C@@H]1CN([C@H](C)CO)C(=O)c2cc(C#Cc3ccccc3F)cnc2O[C@@H]1CN(C)C(=O)C1CCOCC1 | inactive: 1.01
Cc1ccc([C@@H](N)c2ccncc2)cc1 | inactive: 0.982
COc1ccc(S(=O)(=O)Nc2ccc3c(c2)CC(=O)N([C@@H](C)CO)C[C@@H](C)[C@@H](CN(C)Cc2ccc(Oc4ccccc4)cc2)O3)cc1 | inactive: 0.994
CO[C@@H](C(=O)N(C)C[C@@H]1OCc2ccccc2-c2c(n(C)c3ccccc23)C(=O)N([C@@H](C)CO)C[C@H]1C)c1ccccc1 | inactive: 1.01
Cc1noc(C)c1NC(=O)N(C)C[C@@H]1Oc2ccc(NC(=O)CCN3CCOCC3)cc2C(=O)N([C@@H](C)CO)C[C@H]1C | inactive: 1.04
COc1ccc2c3c([nH]c2c1)[C@H](CO)N(C[C@]13CN(CC2CCOCC2)C1)C(=O)Nc1c(noc1C)C | inactive: 1.02
C[C@H](CO)N1C[C@H](C)[C@@H](CN(C)C(=O)Nc2ccc3c(c2)OCO3)Oc2ccc(NC(=O)CCN3CCOCC3)cc2CC1=O | inactive: 0.981

SMILES | relative growth
Cc1cc(C(=O)NCc2cccn2C)nn1C | inactive: 1.02
C[C@@H]1CN([C@@H](C)CO)C(=O)c2cc(NC(=O)Nc3cccc4ccccc34)ccc2O[C@@H](C)CCCCO[C@@H]1CN(C)S(=O)(=O)c1ccc(F)cc1 | inactive: 1.01
N#C/C(=C\c1cccs1)c1csc2ccc(Cl)cc12 | inactive: 0.994
Nc1cccc(=O)[nH]1 | inactive: 1.03
C[C@@H]1CCCCO[C@H](CN(C)S(=O)(=O)c2ccc(Cl)cc2)[C@@H](C)CN([C@H](C)CO)C(=O)c2cc(NC(=O)Nc3ccc4c(c3)OCO4)ccc2O1 | inactive: 1.02
C[C@@H]1CN([C@H](C)CO)C(=O)c2cccc(NC(=O)C3CC3)c2O[C@H]1CN(C)S(=O)(=O)c1cccs1 | inactive: 1.01
Cc1cc(C(C)(C)C)cc(C)c1CC1=NCCN1.Cl | inactive: 1.04
C[C@H]1CCCCO[C@H](CN(C)C(=O)C2CCCCC2)[C@@H](C)CN([C@@H](C)CO)C(=O)c2cc(NC(=O)Nc3ccc4c(c3)OCO4)ccc2O1 | inactive: 1.02
C[C@@H]1CN([C@@H](C)CO)C(=O)c2cc(NC(=O)Nc3cccc4ccccc34)ccc2O[C@H]1CN(C)Cc1ccc(C(=O)O)cc1 | inactive: 0.995
C[C@@H]1CCCCO[C@H](CN(C)C(=O)Nc2ccc(C(F)(F)F)cc2)[C@H](C)CN([C@H](C)CO)C(=O)c2cc(NS(C)(=O)=O)ccc2O1 | inactive: 0.968
C[C@@H]1CN([C@@H](C)CO)C(=O)c2cc(NS(=O)(=O)c3ccc(Cl)cc3)ccc2O[C@H]1CN(C)Cc1ccc(Oc2ccccc2)cc1 | inactive: 1.02
Cc1ccc(S(=O)(=O)N(C)C[C@H]2Oc3ccc(NS(=O)(=O)c4cccs4)cc3CC(=O)N([C@@H](C)CO)C[C@@H]2C)cc1 | inactive: 0.998
CC(C)NC(=O)N(C)C[C@@H]1Oc2c(NS(=O)(=O)c3ccc(F)cc3)cccc2C(=O)N([C@@H](C)CO)C[C@@H]1C | inactive: 0.987
C[C@H](CO)N1C[C@H](C)[C@@H](CN(C)C(=O)Nc2ccc(F)cc2)OCCCC[C@H](C)Oc2ccc(NC(=O)Nc3ccc(F)cc3)cc2C1=O | inactive: 1.06
CC1CC2C3CC(F)C4=CC(=O)C=CC4(C)C3(F)C(O)CC2(C)C1(O)C(=O)COC(=O)C(C)(C)C (centres undefined) | inactive: 1.13
CO[C@@H]1CN(C)C(=O)c2cc(NS(=O)(=O)c3cn(C)cn3)ccc2OC[C@H](C)N(CC2CC2)C[C@H]1C | inactive: 1.01
C[C@@H]1CN([C@H](C)CO)C(=O)c2cccc(NC(=O)NC3CCCCC3)c2O[C@@H]1CN(C)S(C)(=O)=O | inactive: 0.979
O=C(Nc1ccc2c(c1)[C@@H]1C[C@@H](CC(=O)N3CCc4ccccc4C3)O[C@H](CO)[C@@H]1O2)C1CCOCC1 | inactive: 1
COc1ccc(S(=O)(=O)Nc2ccc3c(c2)C(=O)N([C@H](C)CO)C[C@@H](C)[C@@H](CN(C)C(=O)Nc2ccccc2)OCCCC[C@@H](C)O3)cc1 | inactive: 0.983

Reference: the supplement of paper PMC9446081
